About 60 (0.1%) of roughly 46,000 compounds were called active. About 3% were inconclusive and are not listed. The call rests on the fitted dose curve; in most records, active means well fitted inhibition curve with a large enough effect; inconclusive means small, poorly fitted or top-dose-only effect; inactive means no such curve, though single readings can be large or run the other way. Some of the results follow.
assay: Primary qHTS assay for Inhibitors of ovarian cancer metastasis using an organotypic tumor microenvironment (TME) model.; further: nearly all actives have a fitted effect of over 65% in size;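 on activity change, negative = inhibition: plate controls were DMSO wells for no effect and tomatine positive control wells for full effect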; conditions: SKOV3ip1-GFP adhesion/invasion on 3D omental model, fluorescence; series mostly up to 45.8 µM; activity change, negative = inhibition: at the top concentration
Outline: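 A 3D layer of primary human omental fibroblasts, mesothelial cells, fibronectin and collagen I, grown 48 hr, received SKOV3ip1-GFP cells in serum-free medium plus compounds at 0.36-46 umol/L. After 2 hr RT and 16 hr 37 C, fixed adherent GFP cells were counted; normalized to DMSO and tomatine.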

Activity change, negative = inhibition, inactive:
COc1ccc(-c2noc(-c3cccc(OC)c3OC)n2)cc1 -1.65%
COc1ccc(CNC(=O)C2Cc3cc(S(=O)(=O)N4CCCCCC4)ccc3N2C(C)=O)cc1 (configuration not stated) 7.38%
Cc1cc(-c2ccc(S(=O)(=O)Nc3ccc(Br)c(C)c3)s2)on1 -3.84%
COc1ccc(Cl)cc1NC(=O)Cn1cc2c(n1)CCC(C)C2 (configuration not stated) -4.59%
O=c1c2cnn(-c3ccc(F)cc3)c2ncn1Cc1ccc(F)cc1 -1.24%
Cc1cccc(NC(=O)Cc2ccc(-n3c(C)nc4cccnc43)cc2)c1C -8.37%
COc1ccc(CCN2C(=O)N(c3ccccc3)C(=O)C2CC(=O)Nc2ccccc2)cc1 (configuration not stated) -17.9%
Cc1ccc(-c2nc(C)c(CCNC(=O)C(=O)Nc3ccc4c(c3)OCO4)s2)cc1 -10.6%
N#Cc1c[nH]n2c(NC3CCCCC3)c(-c3cccc(Cl)c3)nc12 2.79%
CCc1ccc(NC(=O)c2cc3c([nH]c2=O)CC(C)(C)CC3=O)cc1 -11.8%
CC(=O)c1cccc(NC(=O)c2cc3nc(-c4ccc(Br)cc4)cc(C(F)(F)F)n3n2)c1 7.76%
COc1ccc(CNC(=O)c2ccc(-c3nc(CSc4ccccc4)c(C)o3)cc2)c(OC)c1 4.81%
Cc1nc(N2CCOCC2)c2c(C(=O)N3CCN(c4cccc(C)c4C)CC3)c(C)oc2n1 -2.96%
COc1cc(C(=O)N2CC(=O)Nc3ccc(C)cc3C2c2ccc(F)cc2)cc(OC)c1OC (configuration not stated) 7.92%
CCOC(=O)C1CCN(CCC(=O)Nc2ccc(OC)cc2)CC1 5.02%
CCCN1C(=O)C2(c3ccccc31)c1c(oc3ccc(C)cc3c1=O)C(=O)N2CCOC (configuration not stated) 24.6%
Cc1ccc(C)c(NC(=O)NCc2ccc3c(c2)CCN3C(=O)c2ccccc2)c1 2.77%
COC(=O)c1ccccc1NC(=O)Cn1c(=O)n(CCCC(=O)NCCc2ccc(OC)c(OC)c2)c(=O)c2ccccc21 -5.67%
Cc1cc(C)c(NC(=O)CCC(=O)N2Cc3ccccc3Oc3ncccc32)c(C)c1 -17.4%
CC(C)(N)c1ccc(-c2nc3ccccc3nc2-c2ccccc2)cc1 -1.96%
COc1cc2ncn(-c3cc(OCc4ccccc4C(F)(F)F)c(C(N)=O)s3)c2cc1OC 5.48%
COc1ccc(S(=O)(=O)NCc2ccc(C(=O)NCc3ccccc3)cc2)cc1 3.89%
CCCOc1ccc(C2c3c(oc4ccccc4c3=O)C(=O)N2c2nc(C)c(C(=O)OCC)s2)cc1 (configuration not stated) -6.55%
CC(C)c1ccc(NC(=O)C2(C)Cc3ccccc3C(=O)O2)cc1 (configuration not stated) 6.57%
CC(=O)c1ccc(N2CCN(C(=O)c3ccc(Cn4c(=O)[nH]c5ccccc5c4=O)cc3)CC2)cc1 -6.96%
O=C(c1ccccc1)c1ccc2nc(Nc3cc(Cl)ccc3O)c3nncn3c2c1 5.9%
CC(C)C(NS(=O)(=O)c1cccc2cccnc12)C(=O)Nc1ccc(OC(F)(F)F)cc1 (configuration not stated) -8.52%
CN1c2cc(O)c(N=NC(N)=O)cc2CC1S(=O)(=O)O (configuration not stated) 9.23%
O=C(CCn1cnc2ccccc2c1=O)NCc1ccccc1 -5.26%
COc1cccc(CNC(=O)c2cc(-c3cccc(OC)c3)n[nH]2)c1 -3.34%
O=S(=O)(c1ccc2[nH]c3c(c2c1)CCCCC3)N1CCN(c2ccccc2)CC1 1.73%
CCN(CC)CCCNC(=O)Cn1nc(N2CCN(c3ccccc3OC)CC2)ccc1=O 0.439%
CN1C(=O)Cc2cc(S(=O)(=O)CCC(=O)Nc3ccccc3)ccc21 9.02%
COc1cc(OC)c(N(C)C(=O)c2nn(C)c3c2CSc2ccccc2-3)cc1Cl -2.53%
COc1ccc(Cl)cc1NC(=O)CN(C)S(=O)(=O)c1ccc(Br)s1 -5.12%
CCCCOc1ccc(S(=O)(=O)N2CCN(c3ccccc3OCC)CC2)cc1 -5.62%
CCc1ccc(S(=O)(=O)Nc2ccc(-c3ccc(N4CCCCCC4)nn3)cc2)cc1 2.85%
CCOc1ccccc1NC(=O)c1sc(-n2nc(C)c(CCC(C)C)c2C)nc1C -1.97%
O=C(Nc1cccc(Cl)c1)Nc1ccccc1OCc1cc(=O)n2ccccc2n1 -5.93%
C#CCN[C@@H]1CCc2ccccc21 2.1%
COCCCNC(=O)CCC(=O)N1Cc2ccccc2Oc2ncccc21 0.649%
Cc1cc2c(c3oc(=O)c4ccccc4c13)CN(Cc1ccc(F)cc1)CO2 -5.86%
CCC1CCCCN1CCCNC(=O)CN1C(=O)CSc2ccc(S(=O)(=O)N3CCC(C)CC3)cc21 (configuration not stated) -19.2%
Cc1cc(C)c2oc(-c3cccc(NC(=O)c4ccco4)c3)nc2c1 -15.1%
COc1cccc(C(=O)Nc2c(C(=O)NC(C)(C)C)oc3ccccc23)c1 -0.658%
C1COC(NC(C2CC2)C2CC2)=N1 5.08%
Cc1ccc(CNC(=O)CN(c2ccc(Cl)cc2Cl)S(=O)(=O)c2ccccc2)cc1 -7.2%
CN(C)c1ccc(CNC(=O)CN(C)S(=O)(=O)c2ccc3c(c2)c(=O)n(C)c(=O)n3C)cc1 -0.615%
O=C(Cn1ncc2c(=O)oc3ccccc3c21)NCc1ccccc1Cl -4.08%
CCc1cccc(NC(=O)Cn2c(=O)n(CCc3ccc(OC)c(OC)c3)c(=O)c3ccccc32)c1 7.5%

outcome, inactive:
O=S(=O)(c1ccc2nc(N3CCN(c4ccccc4)CC3)ccc2c1)N1CCCCC1
CSc1nnc2[nH]c(=O)cc(C)n12
Cc1ccc2c(c1)-c1c(cnn1CC(=O)N1CCN(c3cc(Cl)ccc3C)CC1)CO2
CCCSCCCNC(=O)CN1C(=O)COc2ccc(S(=O)(=O)N3CCC(C)CC3)cc21
Cc1cccc(C)c1NC(=O)c1oc2c(c1C)-c1nn(Cc3ccccc3)cc1CC2
O=C(NCC(c1ccccc1)c1ccccc1)c1nn(-c2ccccc2Cl)nc1CO
Cc1ccc(Cl)cc1N1CCN(C(=O)c2ccc3c(c2)N(Cc2ccccc2F)C(=O)c2ccccc2S3(=O)=O)CC1
Cc1nc2c(C(=O)N(C)Cc3ccccc3)c[nH]n2c(=O)c1Cc1ccc(Cl)cc1
CCc1cccc2sc(N3CCN(C(=O)c4cc5ccccc5cc4OC)CC3)nc12
Cc1ccc(CCNC(=O)Cn2c(-c3cccs3)cc3cc(F)ccc32)cc1
Cc1ccc(CNC(=O)Cn2ccn(-c3ccc(C)c(C)c3)c(=O)c2=O)cc1
COc1ccc(CC(=O)NCc2ccc3c(c2)CCN3C(=O)c2ccc(C)cc2)cc1OC

From PubChem BioAssay AID1963576 (National Center for Advancing Translational Sciences (NCATS), 2024)
